{
  "source": "the supplement of paper PMC3334620",
  "note": "Over roughly 33,000 sequences, “E-score (-0.5 to 0.5)” has its median near -0.013; the highest 2% begin near 0.3. Some of the results follow.",
  "data": [
    {"molecular_target": "T1, Msn1 (UniProt P22148)", "T1 sequence": "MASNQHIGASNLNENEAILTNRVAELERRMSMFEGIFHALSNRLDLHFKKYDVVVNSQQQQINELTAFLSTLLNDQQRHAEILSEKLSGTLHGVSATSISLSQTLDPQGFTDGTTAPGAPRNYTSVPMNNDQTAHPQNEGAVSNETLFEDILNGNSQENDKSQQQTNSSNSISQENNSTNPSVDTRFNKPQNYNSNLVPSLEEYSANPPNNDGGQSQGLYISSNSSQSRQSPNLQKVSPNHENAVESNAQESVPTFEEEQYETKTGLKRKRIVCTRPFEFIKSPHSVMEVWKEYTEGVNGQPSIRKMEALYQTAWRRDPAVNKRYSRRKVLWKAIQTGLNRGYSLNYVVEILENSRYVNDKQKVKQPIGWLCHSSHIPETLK", "assay": "PBM E-score (8-mer binding enrichment) (E-score (-0.5 to 0.5)); higher = stronger / more preferred TF binding; most listed sequences are background and not binding sites", "conditions": "protein concentration: 200 nM; construct: GST-full length", "summary_of_the_method": "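Yeast transcription factors carrying a GST tag, as full-length proteins or DNA-binding domains, were produced by PURExpress in vitro transcription/translation. About 100-200 nM protein was applied to universal all-10-mer Agilent arrays, double-stranded by primer extension on fresh or once-stripped slides. Bound protein was detected with fluorescent anti-GST, and scans were normalised with masliner. The Universal PBM Analysis Suite gave each ungapped eight-base word, pooled with its reverse complement, an E-score, a modified Wilcoxon-Mann-Whitney statistic.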", "values": [
      {"sequence": "ATTGCGAA", "PBM E-score": -0.0849},
      {"sequence": "AGTCGGTA", "PBM E-score": -0.0985},
      {"sequence": "GTCAAGTA", "PBM E-score": 0.0507},
      {"sequence": "CGAAAGTC", "PBM E-score": 0.196},
      {"sequence": "CACTGCGC", "PBM E-score": -0.0604},
      {"sequence": "AAAGAGTG", "PBM E-score": -0.0168},
      {"sequence": "GTCCACTA", "PBM E-score": 0.15},
      {"sequence": "AGTAAAAG", "PBM E-score": 0.142},
      {"sequence": "GAGACTCC", "PBM E-score": -0.0748},
      {"sequence": "CAAAAGTG", "PBM E-score": 0.14},
      {"sequence": "CGCTGTCC", "PBM E-score": 0.102},
      {"sequence": "AGGAGAGA", "PBM E-score": -0.0434},
      {"sequence": "ATTCAGTC", "PBM E-score": 0.0214},
      {"sequence": "AAAATAGA", "PBM E-score": 0.162},
      {"sequence": "AAATCACA", "PBM E-score": -0.0165},
      {"sequence": "AGCGGCCA", "PBM E-score": -0.215},
      {"sequence": "CGATCCCC", "PBM E-score": -0.193},
      {"sequence": "CCCGTGCC", "PBM E-score": -0.226},
      {"sequence": "GATGCTAC", "PBM E-score": -0.117},
      {"sequence": "ATGATGGC", "PBM E-score": -0.162},
      {"sequence": "AGCTACAA", "PBM E-score": -0.0544},
      {"sequence": "ACGAGAGA", "PBM E-score": -0.0508},
      {"sequence": "CAGGTTAA", "PBM E-score": 0.0612},
      {"sequence": "AAACTCTA", "PBM E-score": 0.00298},
      {"sequence": "CTATGAGA", "PBM E-score": -0.0425},
      {"sequence": "AAAATCTA", "PBM E-score": 0.0219},
      {"sequence": "AGTGCTGC", "PBM E-score": -0.164},
      {"sequence": "CAGTTATC", "PBM E-score": -0.222},
      {"sequence": "AACCCATA", "PBM E-score": 0.112},
      {"sequence": "ACCGTCGG", "PBM E-score": -0.251},
      {"sequence": "ATCGCCGG", "PBM E-score": 0.0491},
      {"sequence": "ACCCCTCG", "PBM E-score": -0.237},
      {"sequence": "GCTCCACC", "PBM E-score": -0.133},
      {"sequence": "AGTGACTG", "PBM E-score": -0.07},
      {"sequence": "AGCTCAAC", "PBM E-score": 0.03},
      {"sequence": "GTTTTTAA", "PBM E-score": 0.1},
      {"sequence": "ATAGAATC", "PBM E-score": 0.0514},
      {"sequence": "AATTACGG", "PBM E-score": 0.0374},
      {"sequence": "ACATGATG", "PBM E-score": 0.133},
      {"sequence": "AACTCGGT", "PBM E-score": 0.0633},
      {"sequence": "AATGAAAT", "PBM E-score": 0.258},
      {"sequence": "AAAAAGAA", "PBM E-score": 0.036},
      {"sequence": "GCTCTACC", "PBM E-score": -0.249},
      {"sequence": "AACATTGT", "PBM E-score": 0.145},
      {"sequence": "AGTATCCC", "PBM E-score": -0.0802},
      {"sequence": "TCTCTGAA", "PBM E-score": -0.0233},
      {"sequence": "CATCGCAC", "PBM E-score": -0.212},
      {"sequence": "TCAGGACA", "PBM E-score": 0.461},
      {"sequence": "CGCGTCTC", "PBM E-score": 0.0892},
      {"sequence": "GACCGTTA", "PBM E-score": 0.0323},
      {"sequence": "TATACAGA", "PBM E-score": 0.173},
      {"sequence": "CGCATACA", "PBM E-score": 0.0313},
      {"sequence": "GCGGTAGA", "PBM E-score": -0.167},
      {"sequence": "ACTCTTAT", "PBM E-score": 0.13},
      {"sequence": "ACCTAAAA", "PBM E-score": 0.0426},
      {"sequence": "GGCGTTCA", "PBM E-score": -0.179},
      {"sequence": "ACCCACTG", "PBM E-score": -0.0189},
      {"sequence": "CAGTACCC", "PBM E-score": -0.239},
      {"sequence": "ACGAATAG", "PBM E-score": 0.021},
      {"sequence": "CTCCTAGC", "PBM E-score": -0.27},
      {"sequence": "CCAGTAGG", "PBM E-score": -0.213},
      {"sequence": "TATTACCA", "PBM E-score": 0.0056},
      {"sequence": "ACTCTCCG", "PBM E-score": -0.11},
      {"sequence": "CGTGACGA", "PBM E-score": 0.00091},
      {"sequence": "TCCCGCAA", "PBM E-score": 0.127},
      {"sequence": "ACACTACA", "PBM E-score": 0.0311},
      {"sequence": "GGAGTTGA", "PBM E-score": -0.162},
      {"sequence": "ACGGAGGC", "PBM E-score": -0.314},
      {"sequence": "GATCACGC", "PBM E-score": 0.183},
      {"sequence": "AAGCGCAT", "PBM E-score": 0.0169},
      {"sequence": "CGAGTCGC", "PBM E-score": -0.25},
      {"sequence": "ACCAATTA", "PBM E-score": 0.015},
      {"sequence": "GACAACAC", "PBM E-score": 0.269},
      {"sequence": "TATAGTAA", "PBM E-score": 0.11},
      {"sequence": "CCCCCCTC", "PBM E-score": -0.368},
      {"sequence": "TAGTACGA", "PBM E-score": 0.0888},
      {"sequence": "AGTGTACA", "PBM E-score": 0.172},
      {"sequence": "AGGGGAGA", "PBM E-score": -0.182},
      {"sequence": "TTTTAAAA", "PBM E-score": 0.263},
      {"sequence": "GTGGCTTA", "PBM E-score": -0.153},
      {"sequence": "CGGTAGGC", "PBM E-score": -0.057},
      {"sequence": "CTTCCAAC", "PBM E-score": -0.152},
      {"sequence": "GAGGCTTA", "PBM E-score": -0.241},
      {"sequence": "CGCAGTCC", "PBM E-score": -0.139},
      {"sequence": "CGTAGCAA", "PBM E-score": -0.00263},
      {"sequence": "AAGCTGCT", "PBM E-score": -0.016},
      {"sequence": "TAGACGGA", "PBM E-score": 0.122},
      {"sequence": "GCGGGACC", "PBM E-score": -0.22},
      {"sequence": "GAGCTTTA", "PBM E-score": -0.0905},
      {"sequence": "CCTCGAGA", "PBM E-score": -0.065},
      {"sequence": "ACCTCACT", "PBM E-score": 0.0185},
      {"sequence": "ACACGTAG", "PBM E-score": 0.091},
      {"sequence": "TCTCGGCA", "PBM E-score": 0.0465},
      {"sequence": "CCCCTTAA", "PBM E-score": -0.157}
    ]}
  ]
}
